These are yes or no findings as the source states them, for the method shown. Binding seen in cells or lysates may run through a third protein. Some binding calls cover weakened binding; strength is not graded here. For some of these results: Where a sequence is shown, tags or fusion partners need not be part of it. One block for each binder: values may come before it.
Key:
[1] = target: ubiquitin-specific protease 14 (USP14), endogenous in HN4 cells (human (endogenous in HN4)), P54578; experiment: co-IP; immunoprecipitation with USP14 antibody (Fig. S2A), Western blot; cells not named in the legend; details: remark: other sources report otherwise
[2] = target: HA-tagged ubiquitin-specific protease 14 (USP14), stably overexpressed in HN4 cells (human), P54578; experiment: co-IP; immunoprecipitation with HA antibody (Fig. S2B), Western blot; cells not named in the legend; details: remark: other sources report otherwise
[3] = target: HA-tagged ubiquitin-specific protease 14 (USP14), expressed in HEK293T cells (human) (UniProt P54578); experiment: co-IP; whole-cell lysates of HEK293T cells expressing HA-USP14 and Flag-PFKL; lysis buffer 1% NP-40, 50 mM Tris-HCl pH 7.4, 150 mM NaCl, 5 mM EDTA, 0.02% SDS; protein A/G agarose; Western blot
[4] = target: ubiquitin-specific protease 14 (USP14), endogenous in HN4 cells (human (endogenous in HN4)) (UniProt P54578); experiment: co-IP; endogenous proteins in HN4 cell lysate; lysis buffer 1% NP-40, 50 mM Tris-HCl pH 7.4, 150 mM NaCl, 5 mM EDTA, 0.02% SDS; antibody or IgG control overnight at 4 °C, protein A/G agarose; Western blot
[5] = target: HA-tagged ubiquitin-specific protease 14 (USP14), stably overexpressed in HN4 cells (human) (UniProt P54578); experiment: co-IP; whole-cell lysates of HN4 cells stably expressing HA-USP14; lysis buffer 1% NP-40, 50 mM Tris-HCl pH 7.4, 150 mM NaCl, 5 mM EDTA, 0.02% SDS; antibody or IgG control overnight at 4 °C, protein A/G agarose; Western blot
[6] = target: ubiquitin-specific protease 14 (USP14), endogenous in HN4 cells (human (endogenous in HN4)) (UniProt P54578); experiment: co-IP; immunoprecipitation with USP14 antibody (Fig. S2A), Western blot; cells not named in the legend
[7] = target: HA-tagged ubiquitin-specific protease 14 (USP14), stably overexpressed in HN4 cells (human) (UniProt P54578); experiment: co-IP; immunoprecipitation with HA antibody (Fig. S2B), Western blot; cells not named in the legend

Protein sequences, listed by entry. Tags and fused reporters are not part of them.
UniProt P54578: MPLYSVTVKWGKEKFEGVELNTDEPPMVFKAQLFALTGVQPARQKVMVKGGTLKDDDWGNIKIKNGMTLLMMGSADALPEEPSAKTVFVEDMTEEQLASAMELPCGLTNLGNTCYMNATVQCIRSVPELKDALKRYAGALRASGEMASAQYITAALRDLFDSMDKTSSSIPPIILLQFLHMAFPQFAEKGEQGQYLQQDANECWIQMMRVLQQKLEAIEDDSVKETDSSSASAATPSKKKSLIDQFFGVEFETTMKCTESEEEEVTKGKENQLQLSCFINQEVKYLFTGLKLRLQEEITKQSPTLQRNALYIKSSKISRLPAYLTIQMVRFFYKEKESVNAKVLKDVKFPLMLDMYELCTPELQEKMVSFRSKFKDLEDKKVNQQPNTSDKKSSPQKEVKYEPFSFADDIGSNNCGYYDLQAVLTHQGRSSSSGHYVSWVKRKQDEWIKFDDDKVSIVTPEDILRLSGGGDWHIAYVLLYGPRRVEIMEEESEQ

B2: Flag-tagged phosphofructokinase-1 liver type (PFKL), expressed in HEK293T cells (enzyme, UniProt P17858 1-780)
chain: MAAVDLEKLRASGAGKAIGVLTSGGDAQGMNAAVRAVTRMGIYVGAKVFLIYEGYEGLVEGGENIKQANWLSVSNIIQLGGTIIGSARCKAFTTREGRRAAAYNLVQHGITNLCVIGGDGSLTGANIFRSEWGSLLEELVAEGKISETTARTYSHLNIAGLVGSIDNDFCGTDMTIGTDSALHRIMEVIDAITTTAQSHQRTFVLEVMGRHCGYLALVSALASGADWLFIPEAPPEDGWENFMCERLGETRSRGSRLNIIIIAEGAIDRNGKPISSSYVKDLVVQRLGFDTRVTVLGHVQRGGTPSAFDRILSSKMGMEAVMALLEATPDTPACVVTLSGNQSVRLPLMECVQMTKEVQKAMDDKRFDEATQLRGGSFENNWNIYKLLAHQKPPKEKSNFSLAILNVGAPAAGMNAAVRSAVRTGISHGHTVYVVHDGFEGLAKGQVQEVGWHDVAGWLGRGGSMLGTKRTLPKGQLESIVENIRIYGIHALLVVGGFEAYEGVLQLVEARGRYEELCIVMCVIPATISNNVPGTDFSLGSDTAVNAAMESCDRIKQSASGTKRRVFIVETMGGYCGYLATVTGIAVGADAAYVFEDPFNIHDLKVNVEHMTEKMKTDIQRGLVLRNEKCHDYYTTEFLYNLYSSEGKGVFDCRTNVLGHLQQGGAPTPFDRNYGTKLGVKAMLWLSEKLREVYRKGRVFANAPDSACVIGLKKKAVAFSPVTELKKDTDFEHRMPREQWWLSLRLMLKMLAQYRISMAAYVSGELEHVTRRTLSMDKGF
- binding [3]: binds

B4: phosphofructokinase, muscle isozyme (PFKM) (enzyme, UniProt P08237 1-780)
chain: MTHEEHHAAKTLGIGKAIAVLTSGGDAQGMNAAVRAVVRVGIFTGARVFFVHEGYQGLVDGGDHIKEATWESVSMMLQLGGTVIGSARCKDFREREGRLRAAYNLVKRGITNLCVIGGDGSLTGADTFRSEWSDLLSDLQKAGKITDEEATKSSYLNIVGLVGSIDNDFCGTDMTIGTDSALHRIMEIVDAITTTAQSHQRTFVLEVMGRHCGYLALVTSLSCGADWVFIPECPPDDDWEEHLCRRLSETRTRGSRLNIIIVAEGAIDKNGKPITSEDIKNLVVKRLGYDTRVTVLGHVQRGGTPSAFDRILGSRMGVEAVMALLEGTPDTPACVVSLSGNQAVRLPLMECVQVTKDVTKAMDEKKFDEALKLRGRSFMNNWEVYKLLAHVRPPVSKSGSHTVAVMNVGAPAAGMNAAVRSTVRIGLIQGNRVLVVHDGFEGLAKGQIEEAGWSYVGGWTGQGGSKLGTKRTLPKKSFEQISANITKFNIQGLVIIGGFEAYTGGLELMEGRKQFDELCIPFVVIPATVSNNVPGSDFSVGADTALNTICTTCDRIKQSAAGTKRRVFIIETMGGYCGYLATMAGLAAGADAAYIFEEPFTIRDLQANVEHLVQKMKTTVKRGLVLRNEKCNENYTTDFIFNLYSEEGKGIFDSRKNVLGHMQQGGSPTPFDRNFATKMGAKAMNWMSGKIKESYRNGRIFANTPDSGCVLGMRKRALVFQPVAELKDQTDFEHRIPKEQWWLKLRPILKILAKYEIDLDTSDHAHLEHITRKRSGEAAV
- binding [6]: no binding
- binding [7]: no binding

Second part, the binder after the results:

- binding [1]: no binding
- binding [2]: no binding
B1: phosphofructokinase, platelet isozyme (PFKP), Q01813 1-784 (enzyme)
chain: MDADDSRAPKGSLRKFLEHLSGAGKAIGVLTSGGDAQGMNAAVRAVVRMGIYVGAKVYFIYEGYQGMVDGGSNIAEADWESVSSILQVGGTIIGSARCQAFRTREGRLKAACNLLQRGITNLCVIGGDGSLTGANLFRKEWSGLLEELARNGQIDKEAVQKYAYLNVVGMVGSIDNDFCGTDMTIGTDSALHRIIEVVDAIMTTAQSHQRTFVLEVMGRHCGYLALVSALACGADWVFLPESPPEEGWEEQMCVKLSENRARKKRLNIIIVAEGAIDTQNKPITSEKIKELVVTQLGYDTRVTILGHVQRGGTPSAFDRILASRMGVEAVIALLEATPDTPACVVSLNGNHAVRLPLMECVQMTQDVQKAMDERRFQDAVRLRGRSFAGNLNTYKRLAIKLPDDQIPKTNCNVAVINVGAPAAGMNAAVRSAVRVGIADGHRMLAIYDGFDGFAKGQIKEIGWTDVGGWTGQGGSILGTKRVLPGKYLEEIATQMRTHSINALLIIGGFEAYLGLLELSAAREKHEEFCVPMVMVPATVSNNVPGSDFSIGADTALNTITDTCDRIKQSASGTKRRVFIIETMGGYCGYLANMGGLAAGADAAYIFEEPFDIRDLQSNVEHLTEKMKTTIQRGLVLRNESCSENYTTDFIYQLYSEEGKGVFDCRKNVLGHMQQGGAPSPFDRNFGTKISARAMEWITAKLKEARGRGKKFTTDDSICVLGISKRNVIFQPVAELKKQTDFEHRIPKEQWWLKLRPLMKILAKYKASYDVSDSGQLEHVQPWSV

- binding [4]: binds
- binding [5]: binds
B3: phosphofructokinase-1 liver type (PFKL), endogenous in HN4 cells (enzyme, UniProt P17858 1-780)
chain: MAAVDLEKLRASGAGKAIGVLTSGGDAQGMNAAVRAVTRMGIYVGAKVFLIYEGYEGLVEGGENIKQANWLSVSNIIQLGGTIIGSARCKAFTTREGRRAAAYNLVQHGITNLCVIGGDGSLTGANIFRSEWGSLLEELVAEGKISETTARTYSHLNIAGLVGSIDNDFCGTDMTIGTDSALHRIMEVIDAITTTAQSHQRTFVLEVMGRHCGYLALVSALASGADWLFIPEAPPEDGWENFMCERLGETRSRGSRLNIIIIAEGAIDRNGKPISSSYVKDLVVQRLGFDTRVTVLGHVQRGGTPSAFDRILSSKMGMEAVMALLEATPDTPACVVTLSGNQSVRLPLMECVQMTKEVQKAMDDKRFDEATQLRGGSFENNWNIYKLLAHQKPPKEKSNFSLAILNVGAPAAGMNAAVRSAVRTGISHGHTVYVVHDGFEGLAKGQVQEVGWHDVAGWLGRGGSMLGTKRTLPKGQLESIVENIRIYGIHALLVVGGFEAYEGVLQLVEARGRYEELCIVMCVIPATISNNVPGTDFSLGSDTAVNAAMESCDRIKQSASGTKRRVFIVETMGGYCGYLATVTGIAVGADAAYVFEDPFNIHDLKVNVEHMTEKMKTDIQRGLVLRNEKCHDYYTTEFLYNLYSSEGKGVFDCRTNVLGHLQQGGAPTPFDRNYGTKLGVKAMLWLSEKLREVYRKGRVFANAPDSACVIGLKKKAVAFSPVTELKKDTDFEHRMPREQWWLSLRLMLKMLAQYRISMAAYVSGELEHVTRRTLSMDKGF
